Reference: the supplement of paper PMC4967469
A lower IC50 marks a more sensitive line; fits outside the tested doses are given as limits. The AUC spans the tested range (256-fold, ending at the top dose) of the same fit; values near 1 show little effect. A top dose marked as inferred was derived from the fitted curves, not read from the paper.

Assays:
FR-180204 = compound: Nc1[nH]nc2nnc(-c3c(-c4ccccc4)nn4ccccc34)cc12 [FR-180204]; experiment: Viability of human cancer cell lines after 72 h of drug (GDSC screen); conditions: top dose 20 µM; top dose inferred
Protocol: (§1)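 Human cancer cell lines in 384-well plates, medium with 10% serum, drug for 72 h over a 256-fold dose range (nine 2-fold or five 4-fold steps up to the top dose). Adherent lines were fixed and stained with the nucleic acid dye Syto60, suspension lines read with resazurin; signal relative to control wells, capped at 0 and 100%. One two-parameter sigmoid per drug and line, fitted in a mixed model over all curves with the slope shared within a line.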

FK866 = compound: O=C(/C=C/c1cccnc1)NCCCCC1CCN(C(=O)c2ccccc2)CC1 [FK866]; experiment: as above; conditions: top dose 1 µM; top dose inferred
Protocol: as §1

Cell Line	AUC (FR-180204)	IC50 (FR-180204)	AUC (FK866)	IC50 (FK866)
SK-MEL-3 (melanoma, adherent)	0.909	> 20000 nM	0.978	> 1000 nM
SK-MEL-5 (melanoma, adherent)	0.982	> 20000 nM	0.506	65.3 nM
SK-MEL-24 (melanoma, adherent)	0.897	> 20000 nM	0.867	> 1000 nM
SK-MEL-28 (melanoma, adherent)	0.963	> 20000 nM	0.618	131 nM
SK-MEL-30 (melanoma, adherent)	0.975	> 20000 nM	0.656	174 nM
SK-MES-1 (lung squamous cell carcinoma, adherent)	0.963	> 20000 nM	0.846	830 nM
SK-MG-1 (glioma, adherent)	0.987	> 20000 nM	0.791	456 nM
SK-MM-2 (myeloma, suspension)	0.897	> 20000 nM	0.083	< 3.91 nM
SK-N-AS (neuroblastoma, adherent)	0.961	> 20000 nM	0.541	82.6 nM
SK-N-DZ (neuroblastoma, adherent)	0.987	> 20000 nM	0.985	> 1000 nM
SK-N-FI (neuroblastoma, adherent)	0.98	> 20000 nM	0.744	311 nM
SK-N-SH (neuroblastoma, adherent)	0.961	> 20000 nM	0.055	< 3.91 nM
SK-OV-3 (ovary, adherent)	0.955	> 20000 nM	0.579	109 nM
SK-PN-DW (Ewing sarcoma, adherent)	0.977	> 20000 nM	0.055	< 3.91 nM
SK-UT-1 (soft tissue, adherent)	0.989	> 20000 nM	0.101	< 3.91 nM
SKG-IIIa (cervix, adherent)	0.981	> 20000 nM	0.878	> 1000 nM
SKN (uterus, adherent)	0.977	> 20000 nM	0.649	177 nM
SKN-3 (head and neck, adherent)	0.96	> 20000 nM	0.489	58 nM
SLVL (B-cell lymphoma, suspension)	0.984	> 20000 nM	0.846	792 nM
SN12C (kidney, adherent)	0.977	> 20000 nM	0.175	5.57 nM
SNB75 (glioma, adherent)	0.979	> 20000 nM	0.805	819 nM
SNG-M (endometrium, adherent)	0.963	> 20000 nM	0.07	< 3.91 nM
SNU-61 (large intestine, adherent)	0.931	> 20000 nM	0.383	26.9 nM
SNU-81 (large intestine, adherent)	0.982	> 20000 nM	0.744	408 nM
SNU-182 (liver, adherent)	0.981	> 20000 nM	0.845	768 nM

Cell Line	AUC (FR-180204)	IC50 (FR-180204)	AUC (FK866)	IC50 (FK866)
SNU-387 (liver, adherent)	0.967	> 20000 nM	0.951	> 1000 nM
SNU-398 (liver, adherent)	0.984	> 20000 nM	0.095	< 3.91 nM
SNU-407 (large intestine, adherent)	0.896	> 20000 nM	0.1	< 3.91 nM
SNU-423 (liver, adherent)	0.979	> 20000 nM	0.692	239 nM
SNU-449 (liver, adherent)	0.975	> 20000 nM	0.573	101 nM
SNU-1040 (large intestine, adherent)	0.896	> 20000 nM	0.443	41.3 nM
SNU-C1 (large intestine, suspension)	0.975	> 20000 nM	0.664	222 nM
SNU-C2B (large intestine, adherent)	0.964	> 20000 nM	0.583	114 nM
SNU-C5 (large intestine, adherent)	0.946	> 20000 nM	0.218	8.4 nM
SR (lymphoid neoplasm, suspension)	0.972	> 20000 nM	0.245	12.7 nM
ST486 (Burkitt lymphoma, suspension)	0.893	19200 nM	0.086	< 3.91 nM
SU8686 (pancreas, adherent)	0.98	> 20000 nM	0.862	> 1000 nM
SU-DHL-4 (B-cell lymphoma, suspension)	0.997	> 20000 nM	0.978	> 1000 nM
SU-DHL-5 (B-cell lymphoma, suspension)	0.994	> 20000 nM	0.019	< 3.91 nM
SU-DHL-6 (B-cell lymphoma, suspension)	0.982	> 20000 nM	0.419	39.7 nM
SU-DHL-10 (B-cell lymphoma, suspension)	0.998	> 20000 nM	0.321	23.1 nM
SU-DHL-16 (B-cell lymphoma, suspension)	0.996	> 20000 nM	0.03	< 3.91 nM
SUIT-2 (pancreas, adherent)	0.92	> 20000 nM	0.553	87.6 nM
SUP-HD1 (Hodgkin lymphoma, suspension)	0.986	> 20000 nM	0.199	8.45 nM
SUP-M2 (anaplastic large cell lymphoma, suspension)	0.994	> 20000 nM	0.207	11.5 nM
SUP-T1 (T-cell lymphoblastic leukaemia, suspension)	0.985	> 20000 nM	0.069	< 3.91 nM
SW13 (adrenal gland, adherent)	0.987	> 20000 nM	0.636	150 nM
SW48 (large intestine, adherent)	0.938	> 20000 nM	0.588	109 nM
SW156 (kidney, adherent)	0.964	> 20000 nM	0.79	500 nM
SW620 (large intestine, adherent)	0.983	> 20000 nM	0.187	8.41 nM

Cell Line	AUC (FR-180204)	IC50 (FR-180204)	AUC (FK866)	IC50 (FK866)
SW626 (ovary, adherent)	0.949	> 20000 nM	0.649	176 nM
SW684 (fibrosarcoma, adherent)	0.983	> 20000 nM	0.952	> 1000 nM
SW756 (cervix, adherent)	0.983	> 20000 nM	0.773	464 nM
SW780 (bladder, adherent)	0.986	> 20000 nM	0.643	161 nM
SW837 (large intestine, adherent)	0.96	> 20000 nM	0.879	> 1000 nM
SW872 (soft tissue, adherent)	0.986	> 20000 nM	0.516	68.8 nM
SW900 (lung squamous cell carcinoma, adherent)	0.965	> 20000 nM	0.672	205 nM
SW948 (large intestine, adherent)	0.971	> 20000 nM	0.607	141 nM
SW962 (urogenital system, adherent)	0.965	> 20000 nM	0.648	179 nM
SW982 (soft tissue, adherent)	0.977	> 20000 nM	0.528	74.9 nM
SW1088 (glioma, adherent)	0.974	> 20000 nM	0.702	278 nM
SW1116 (large intestine, adherent)	0.985	> 20000 nM	0.913	> 1000 nM
SW1271 (small cell lung carcinoma, adherent)	0.896	> 20000 nM	0.967	> 1000 nM
SW1417 (large intestine, adherent)	0.954	> 20000 nM	0.927	> 1000 nM
SW1463 (large intestine, adherent)	0.975	> 20000 nM	0.832	> 1000 nM
SW1573 (lung adenocarcinoma, adherent)	0.972	> 20000 nM	0.885	> 1000 nM
SW1710 (bladder, adherent)	0.954	> 20000 nM	0.475	53.4 nM
SW1783 (glioma, adherent)	0.991	> 20000 nM	0.709	226 nM
SW1990 (pancreas, adherent)	0.976	> 20000 nM	0.894	> 1000 nM
Saos-2 (osteosarcoma, adherent)	0.976	> 20000 nM	0.75	456 nM
SiHa (cervix, adherent)	0.987	> 20000 nM	0.216	7.9 nM
T47D (breast, adherent)	0.96	> 20000 nM	0.599	135 nM
T84 (large intestine, adherent)	0.972	> 20000 nM	0.885	> 1000 nM
T98G (glioma, adherent)	0.983	> 20000 nM	0.245	12.4 nM
T-24 (bladder, adherent)	0.968	> 20000 nM	0.983	> 1000 nM

Cell Line	AUC (FR-180204)	IC50 (FR-180204)	AUC (FK866)	IC50 (FK866)
T-T (oesophagus, adherent)	0.976	> 20000 nM	0.271	14 nM
TC-71 (Ewing sarcoma, adherent)	0.886	15600 nM	0.106	4.65 nM
TCCSUP (bladder, adherent)	0.978	> 20000 nM	0.659	184 nM
TE-1 (oesophagus, adherent)	0.982	> 20000 nM	0.975	> 1000 nM
TE-4 (oesophagus, adherent)	0.983	> 20000 nM	0.397	32.6 nM
TE-5 (oesophagus, adherent)	0.982	> 20000 nM	0.71	270 nM
TE-6 (oesophagus, adherent)	0.978	> 20000 nM	0.856	> 1000 nM
TE-8 (oesophagus, adherent)	0.959	> 20000 nM	0.046	< 3.91 nM
TE-9 (oesophagus, adherent)	0.983	> 20000 nM	0.178	6.36 nM
TE-10 (oesophagus, adherent)	0.973	> 20000 nM	0.196	8.01 nM
TE-11 (oesophagus, adherent)	0.99	> 20000 nM	0.989	> 1000 nM
TE-12 (oesophagus, suspension)	0.953	> 20000 nM	0.949	> 1000 nM
TE-15 (oesophagus, suspension)	0.909	> 20000 nM	0.076	< 3.91 nM
TGBC1TKB (biliary tract, adherent)	0.987	> 20000 nM	0.894	> 1000 nM
TGBC11TKB (stomach, adherent)	0.987	> 20000 nM	0.241	12.5 nM
TGBC24TKB (biliary tract, adherent)	0.97	> 20000 nM	0.963	> 1000 nM
TGW (neuroblastoma, adherent)	0.98	> 20000 nM	0.991	> 1000 nM
THP-1 (acute myeloid leukaemia, suspension)	0.9	> 20000 nM	0.032	< 3.91 nM
TK10 (kidney, adherent)	0.906	> 20000 nM	0.57	101 nM
TK (B-cell lymphoma, suspension)	0.968	> 20000 nM	0.989	> 1000 nM
TMK-1 (stomach, adherent)	0.981	> 20000 nM	0.463	49.1 nM
TOV-21G (ovary, adherent)	0.976	> 20000 nM	0.216	8.38 nM
TOV-112D (ovary, adherent)	0.903	> 20000 nM	0.232	10.3 nM
TT2609-C02 (thyroid, adherent)	0.975	> 20000 nM	0.985	> 1000 nM
